In paper PMC7819943, “Rice protein-binding microarrays: a tool to detect cis-acting elements near promoter regions in rice”:
The other results are listed elsewhere or left out.

biological target: T1, OsWOX13 (Oryza sativa, UniProt Q5QMM3 1-267); assay: protein-binding microarray (RPBM); PBS, 2% BSA, 51.3 ng/ul salmon testes DNA, 50 uM zinc acetate, 200 nM TF, 25 C, 1 h; high values mean tight binding; conditions: protein: recombinant; tags: N-terminal polyhistidine and DsRed monomer fusion (pET32a); label: CyDye5-dUTP incorporated in the synthesized complementary strand; 3' TTTTT single-stranded linker to array surface; dsDNA, one strand shown
T1 sequence: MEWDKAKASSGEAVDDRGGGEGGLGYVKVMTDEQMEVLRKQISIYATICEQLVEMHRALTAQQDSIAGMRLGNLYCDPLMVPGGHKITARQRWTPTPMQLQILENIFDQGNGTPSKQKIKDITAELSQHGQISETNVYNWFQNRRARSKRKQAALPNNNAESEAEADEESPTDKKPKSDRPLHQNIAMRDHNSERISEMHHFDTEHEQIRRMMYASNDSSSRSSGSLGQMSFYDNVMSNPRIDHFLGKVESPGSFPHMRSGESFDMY
Procedure, shortened: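 For the binding signal, per-feature fluorescence intensity was read in arbitrary units on an Axon 4000B scanner. Before scanning, a 2% BSA-blocked custom Agilent array made double-stranded with Cy5-dUTP was washed after 1 h at 25 °C with 200 nM protein and 50 µM zinc acetate. The proteins were Ni–NTA-purified transcription factors with N-terminal polyhistidine and DsRed fusions, expressed in E. coli BL21-CodonPlus.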

| Sequence | binding signal |
| --- | --- |
| AGCCCGTTCAATTAAGCTTGGCCACACATCCTGGCCCAACCGGAGTCACCTAGTGCAG | 3210 fluorescence intensity (a.u.) |
| ACCTTATGAACTTATTAAGATTGATTTGTAGGTGGCGGAGCGGAGTCACCTAGTGCAG | 16900 fluorescence intensity (a.u.) |
| GTGAAAATTATTATCATTCCATTTATTTCCATTATGTAATCGGAGTCACCTAGTGCAG | 13300 fluorescence intensity (a.u.) |
| TACCCATCTGGCTTACACTAATTGAACAGACAAGTGGCCGCGGAGTCACCTAGTGCAG | 9560 fluorescence intensity (a.u.) |
| TTCTAATTCGGACTGACAGAGTACTATAATATTCATTCAACGGAGTCACCTAGTGCAG | 4760 fluorescence intensity (a.u.) |
| CATAGAGAACAAATTAATTAATCGTACCATTATTCAAAATCGGAGTCACCTAGTGCAG | 4160 fluorescence intensity (a.u.) |
| GCTAACTTTGAATCAGAGGTTAATTACCTGAAGAAGTCCTCGGAGTCACCTAGTGCAG | 15400 fluorescence intensity (a.u.) |
| TTGATTTAATTACCTTGACCACTCAGTATATGATTAGTAACGGAGTCACCTAGTGCAG | 27300 fluorescence intensity (a.u.) |
| TTTAATTTGAAGAGAAATGGGTGGAAATTTGTCAGCCATGCGGAGTCACCTAGTGCAG | 26800 fluorescence intensity (a.u.) |
| TGAAACATAACTAAATTAGTCATGGAAGAAACTGCTGTTACGGAGTCACCTAGTGCAG | 9330 fluorescence intensity (a.u.) |
| GGGATGGATTAATACATTTCGGATGGTTAATCAAACGATGCGGAGTCACCTAGTGCAG | 4120 fluorescence intensity (a.u.) |
| GAATCCGCTATATACCCTCTCTTCCACCCGCGCCACCCACCGGAGTCACCTAGTGCAG | 3150 fluorescence intensity (a.u.) |
| GTGATGTGATGTGATGGAAAGTTTAGAGTTTTAGATCACCCGGAGTCACCTAGTGCAG | 17400 fluorescence intensity (a.u.) |
| GAATAACAGACATATCATATTTGTTGCCTCCTGGTGGCTACGGAGTCACCTAGTGCAG | 7840 fluorescence intensity (a.u.) |
| CCAATCAATCCTGCTACTGCTCATAAAATGGTTTCCCATTCGGAGTCACCTAGTGCAG | 9000 fluorescence intensity (a.u.) |
| TATGATTTTGAAAGAAACTGCAGCTAACATAAACTCTCCTCGGAGTCACCTAGTGCAG | 17400 fluorescence intensity (a.u.) |
| TAATTACAATTAGCGGATGACATTGTAATCGTTCGATATGCGGAGTCACCTAGTGCAG | 7120 fluorescence intensity (a.u.) |
| GTCTGTGATAATTTTGTTCTCTTCTTGTTGGGGTCTTGGGCGGAGTCACCTAGTGCAG | 3920 fluorescence intensity (a.u.) |
| TCTAAATTGTTCATTGATTCTGTTATAGATTGCTTAAGCCCGGAGTCACCTAGTGCAG | 38200 fluorescence intensity (a.u.) |
| TTTAAATTGTAATCCTACTTGAACTCTTCTTTATTTTCTTCGGAGTCACCTAGTGCAG | 6760 fluorescence intensity (a.u.) |
| CGCTAATCATAAACACTGCAAACAAATAAAGCACGCTGGACGGAGTCACCTAGTGCAG | 10800 fluorescence intensity (a.u.) |

| Sequence | binding signal |
| --- | --- |
| GGAATTTGCAATAATGGGATGGGCGAACGACGGGAATTGACGGAGTCACCTAGTGCAG | 5620 fluorescence intensity (a.u.) |
| AACCAATAACTGAAGATCAACATCAGTCACAAGTATGGAACGGAGTCACCTAGTGCAG | 8770 fluorescence intensity (a.u.) |
| ACACTCTTCAATCAAGGAGCAAATACAGGCTGTGGACTTGCGGAGTCACCTAGTGCAG | 19200 fluorescence intensity (a.u.) |
| AAATGACCAAAATAAAATTGATAGATCTCAATGAGTTCTACGGAGTCACCTAGTGCAG | 7920 fluorescence intensity (a.u.) |
| TATCTATTTAGATTTATTAACATTAATATGAATATAGGAACGGAGTCACCTAGTGCAG | 5320 fluorescence intensity (a.u.) |
| ATCCGTAATTAAATTACCAAACTGCCCCTCCTAGCCAAAGCGGAGTCACCTAGTGCAG | 25900 fluorescence intensity (a.u.) |
| TACTAATTGTATTATGATAAAATCCATATCTATGCGGTTACGGAGTCACCTAGTGCAG | 19300 fluorescence intensity (a.u.) |
| TTGATTGCAGATCAAATGCATGCAATAAGAATGGAGATGGCGGAGTCACCTAGTGCAG | 19600 fluorescence intensity (a.u.) |
| TTTTCCTTAACCAATCATCATTCCCTCATCCCATTAAATTCGGAGTCACCTAGTGCAG | 5060 fluorescence intensity (a.u.) |
| TATATTTTAATTTATATGGATGATCCTTATAGCTATGGGTCGGAGTCACCTAGTGCAG | 8380 fluorescence intensity (a.u.) |
| TATATATATATATATATATATAAAAGTTACTTTTAGATTTCGGAGTCACCTAGTGCAG | 4220 fluorescence intensity (a.u.) |
| TGATAATTAATCTATAGTTTTCTAATAGTTTTGTTATAAACGGAGTCACCTAGTGCAG | 15900 fluorescence intensity (a.u.) |
| GTTGATAATTGGTTCGGATCCCCGCTGCTTCGTCGCAAATCGGAGTCACCTAGTGCAG | 36600 fluorescence intensity (a.u.) |
| CATCACTAATCTACAATTAAGGGCTTGTTCAGATTGATGACGGAGTCACCTAGTGCAG | 14100 fluorescence intensity (a.u.) |
| GGCATTGACTGACTCCACTAGTCCTGTCAAGAGCGTGCATCGGAGTCACCTAGTGCAG | 10600 fluorescence intensity (a.u.) |
| CTTAATTAGCTAGGGTTGCATTGCTGCACTGCACTGGTGTCGGAGTCACCTAGTGCAG | 29900 fluorescence intensity (a.u.) |
| ACTGTGCATGATTTGTCCCTAGAACTTTAGTTTAAGTATGCGGAGTCACCTAGTGCAG | 5640 fluorescence intensity (a.u.) |
| ATTCAAATTCCTAAATTTAACAGTAAAGTTTCCCATACACCGGAGTCACCTAGTGCAG | 4760 fluorescence intensity (a.u.) |
| CAATAAATTTGAATAGCAATTGGTATATGTCATATCTGGTCGGAGTCACCTAGTGCAG | 14900 fluorescence intensity (a.u.) |
| TGCACATTGATAAACTGTTACATTATCCAGCAAAATTTCTCGGAGTCACCTAGTGCAG | 4490 fluorescence intensity (a.u.) |
| ATATCTAATTTATCAACAAAGTTTGCTAAATTTGGATGTCCGGAGTCACCTAGTGCAG | 13300 fluorescence intensity (a.u.) |
